{"source": "PubChem BioAssay AID624417", "about": "(National Center for Advancing Translational Sciences (NCATS), 2012)", "note": "Among all 410,000 compounds or so, about 6,400 (1.6%) were called active. Inconclusive means that the source gave no clear call. Such entries were picked first, then a sample of the others. Calls come from the whole dose curve; as a rule, active = well fitted inhibition curve with a large enough effect; inconclusive = small, poorly fitted or top-dose-only effect; inactive = no such curve, though single readings can be large or run the other way. Potencies of inconclusive entries are left out as doubtful fits. % is set by controls: 0 for no effect and ±100 for the full control effect; potency is the fitted concentration of half-maximal effect; tags give direction and shape of the fitted curve.", "data": [{"molecular_target": "Glucagon-like peptide 1 receptor (Homo sapiens) (UniProt P43220)", "sequence (P43220 whole entry, looked up)": "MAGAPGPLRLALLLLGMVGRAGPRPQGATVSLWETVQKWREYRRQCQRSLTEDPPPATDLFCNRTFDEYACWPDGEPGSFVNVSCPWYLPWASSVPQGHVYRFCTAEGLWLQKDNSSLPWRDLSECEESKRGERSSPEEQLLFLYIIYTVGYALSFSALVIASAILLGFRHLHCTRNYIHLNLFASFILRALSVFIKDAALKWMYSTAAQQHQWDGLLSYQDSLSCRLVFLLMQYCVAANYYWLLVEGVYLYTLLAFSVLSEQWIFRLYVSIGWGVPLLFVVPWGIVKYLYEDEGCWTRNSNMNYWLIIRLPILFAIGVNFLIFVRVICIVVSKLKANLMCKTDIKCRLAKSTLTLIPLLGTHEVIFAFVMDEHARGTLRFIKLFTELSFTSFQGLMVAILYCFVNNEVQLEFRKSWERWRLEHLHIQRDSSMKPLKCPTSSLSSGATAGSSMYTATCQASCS", "assay": "qHTS of GLP-1 Receptor Inverse Agonists (Inhibition Mode); note: nearly all actives have a fitted effect of over 55% in size", "conditions": "HEK293 GLP-1R CRE-luciferase, luminescence, 24 h, GLP-1R form is constitutively active; activity change, negative = inhibition: at 38.3 µM (top of the series) unless noted", "summary_of_the_method": "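Inverse agonists were sought by their lowering of basal cAMP reporter luciferase output in HEK293 cells stably carrying constitutively active human GLP-1R, after 24 h compound treatment.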", "values": [{"smiles": "COc1ccc(Cl)cc1CC=NNC(=O)c1cccc(C)c1O", "Potency": "inconclusive [inhibitor, single point]"}, {"smiles": "Cc1noc(/C=C/c2cccs2)c1S(=O)(=O)N1CCC(C(=O)NCCCN2CCCC(C)C2)CC1", "note": "(stereo not given)", "Potency": "inconclusive [inhibitor, single point]"}, {"smiles": "CN(C)c1ccc(C2C=C(c3ccccc3)Nc3nnnn32)cc1", "note": "(stereo not given)", "activity change, negative = inhibition": "inactive: 12.1%"}, {"smiles": "Cc1cccc(NC(=O)CCCN2C(=S)NC(C)(C)CC2C)c1C", "note": "(stereo not given)", "activity change, negative = inhibition": "inactive: 7.92%"}, {"smiles": "CCOC(=O)C1=C(CNC(C)(C)CC(C)(C)C)NC(=O)NC1c1cccc([N+](=O)[O-])c1", "note": "(stereo not given)", "Potency": "inconclusive [inhibitor, partial curve, poor fit]"}, {"smiles": "Cc1ccccc1OCC(=O)NC1CCCCCCC1", "Potency": "inconclusive [inhibitor, partial curve, poor fit]"}, {"smiles": "CC1C(=O)Nc2ccc(S(=O)(=O)N3CCN(c4cccc(Cl)c4)CC3)cc2NC1=O", "note": "(stereo not given)", "Potency": "inconclusive [inhibitor, single point]"}, {"smiles": "C=CCN1C(c2cccc(C(F)(F)F)c2)=CS/C1=C(/C#N)c1nnc(N2CCOCC2)n1-c1ccccc1", "Potency": "inconclusive [inhibitor, single point]"}, {"smiles": "CCOc1ccc(S(=O)(=O)N2CCCC(C(=O)NCc3ccncc3)C2)cc1C", "note": "(stereo not given)", "Potency": "inconclusive [inhibitor, partial curve, poor fit]"}, {"smiles": "Cc1ccc(OCC(O)CN2CCN(CCO)CC2)c(C)c1", "note": "(stereo not given)", "Potency": "inconclusive [inhibitor, full curve, poor fit]"}, {"smiles": "CC(C)c1nc(NCC2CCCO2)c(C#N)c2c1COC(C)(C)C2", "note": "(stereo not given)", "Potency": "inconclusive [inhibitor, partial curve, poor fit]"}, {"smiles": "CCc1ccc(OCc2nc(-c3ccc(OC)c(OC)c3)no2)c(Br)c1", "Potency": "inconclusive [inhibitor, partial curve, poor fit]"}, {"smiles": "Cc1cc(S(=O)(=O)N2CCN(c3c(C)cccc3C)CC2)ccc1F", "Potency": "inconclusive [inhibitor, single point]"}, {"smiles": "COc1cc(/C=C/C(=O)OCC(=O)N2c3ccccc3CC2C)cc(OC)c1OC", "note": "(stereo not given)", "Potency": "inconclusive [inhibitor, partial curve, poor fit]"}, {"smiles": "CCOc1ccccc1NC(=S)N1CCN(c2nc(-c3ccc(F)cc3)cs2)CC1", "Potency": "inconclusive [inhibitor, single point]"}, {"smiles": "CCCCCCCN1C(Nc2ccccc2)=NC[C@@H]1C", "Potency": "inconclusive [inhibitor, single point]"}, {"smiles": "Nc1c2c(nc3ccccc13)N(c1ccccc1)CC2", "Potency": "inconclusive [inhibitor, partial curve, poor fit]"}, {"smiles": "CN(CC(=O)Nc1ccccc1Br)C(=O)CN1CCN(c2ccccc2Cl)CC1", "Potency": "inconclusive [inhibitor, partial curve, poor fit]"}, {"smiles": "CC(C)c1ccccc1NC(=O)CNC(C)c1ccc(F)cc1", "note": "(stereo not given)", "Potency": "inconclusive [inhibitor, partial curve, poor fit]"}, {"smiles": "O=c1oc2cc(O)ccc2c2oc3cc(O)ccc3c12", "activity change, negative = inhibition": "inactive: 6.65%"}, {"smiles": "CCC(C)NS(=O)(=O)c1ccc(F)c(C(=O)Nc2c(F)cc(F)cc2Br)c1", "note": "(stereo not given)", "Potency": "inconclusive [inhibitor, single point]"}, {"smiles": "Cc1ccc(C(=O)NCCNc2ncc(C(F)(F)F)cc2Cl)cc1[N+](=O)[O-]", "Potency": "inconclusive [inhibitor, partial curve, poor fit]"}, {"smiles": "O=C(NCCNc1ccc([N+](=O)[O-])cc1C(F)(F)F)c1ccccc1", "Potency": "inconclusive [inhibitor, partial curve, poor fit]"}, {"smiles": "Cc1ccc(C(=O)Nc2ccc3c(c2)C(=O)N(CC2CCCO2)C3=O)cc1", "note": "(stereo not given)", "activity change, negative = inhibition": "inactive: 2.84%"}, {"smiles": "Cc1[nH]n(-c2ccccc2)c(=O)c1C=Nc1ccc2[nH]c(=O)[nH]c2c1", "activity change, negative = inhibition": "inactive: 12.9%"}, {"smiles": "Cc1ccc(OCC(=O)c2cc(C)c(C)cc2C)c([N+](=O)[O-])n1", "activity change, negative = inhibition": "inactive: 48.4%"}, {"smiles": "O=C(Nc1ccccc1Cl)c1cc(C2CCCCN2C(=O)C2CCCCC2)on1", "note": "(stereo not given)", "Potency": "inconclusive [inhibitor, partial curve, poor fit]"}, {"smiles": "CCN(CC(=O)Nc1c(F)cccc1F)C(=O)COc1ccc2c(c1)CCC2", "Potency": "inconclusive [inhibitor, partial curve, poor fit]"}, {"smiles": "Clc1ccc(CN(Cc2ccc(Cl)cc2)c2nn[nH]n2)cc1", "Potency": "inconclusive [inhibitor, single point]"}, {"smiles": "COc1cccc(CC2CC(=O)N(CCc3ccc4c(c3)OCO4)C2=O)c1", "note": "(stereo not given)", "Potency": "inconclusive [inhibitor, single point]"}, {"smiles": "CCc1ccccc1N(C)C(=O)c1cn(-c2cccc(OC)c2)c(=O)c2ccccc12", "Potency": "inconclusive [inhibitor, partial curve, poor fit]"}, {"smiles": "COc1ccc(Cn2nc(-c3ccccc3)c(N3CCCCC3)cc2=O)cc1", "Potency": "inconclusive [inhibitor, full curve, poor fit]"}, {"smiles": "CCOc1cc(C(=O)Nc2ccncc2)cc(OCC)c1OCC", "Potency": "inconclusive [inhibitor, partial curve, poor fit]"}, {"smiles": "COc1ccc2nc(NC(=O)Nc3ccccc3)sc2c1", "Potency": "inconclusive [inhibitor, partial curve, poor fit]"}, {"smiles": "Cc1ccc(S(=O)(=O)N2CCOCC2)cc1C(=O)NC(=S)N(Cc1ccccc1)C(C)C", "Potency": "inconclusive [inhibitor, single point]"}, {"smiles": "c1ccc(NC2=Nc3cccc4cccc2c34)cc1", "Potency": "inconclusive [inhibitor, single point]"}, {"smiles": "Cc1n[nH]c(C)c1C(=O)CC1(O)C(=O)N(CCc2ccccc2)c2ccc(Cl)cc21", "note": "(stereo not given)", "Potency": "inconclusive [inhibitor, single point]"}, {"smiles": "CSc1ccc(/C=N/N2CCN(Cc3ccc(Cl)cc3)CC2)cc1", "Potency": "inconclusive [inhibitor, full curve, poor fit]"}, {"smiles": "COc1ccccc1CNC(=O)c1cc(-c2ccccc2)n(Cc2cc(C)no2)n1", "Potency": "inconclusive [inhibitor, single point]"}, {"smiles": "CC(C)Oc1ccc(CNC(=O)C2CCN(c3nc4ccccc4nc3C(F)(F)F)CC2)cc1", "Potency": "inconclusive [inhibitor, partial curve, poor fit]"}, {"smiles": "Cc1ccccc1N1CCN(C2CCCN(C(=O)c3noc4c3CCCC4)C2)CC1", "note": "(stereo not given)", "Potency": "inconclusive [inhibitor, partial curve, poor fit]"}, {"smiles": "CCC(C(=O)O/N=C(\\N)c1cccc(C)c1)c1ccccc1", "note": "(stereo not given)", "Potency": "inconclusive [inhibitor, partial curve, poor fit]"}, {"smiles": "COc1cccc(C2CC(=O)Nc3cc4c(cc32)OCO4)c1OC(C)C", "note": "(stereo not given)", "Potency": "inconclusive [inhibitor, single point]"}, {"smiles": "COc1ccc(C2=CCC3CCCCN3C2)cc1OC", "note": "(stereo not given)", "activity change, negative = inhibition": "inactive: -13.3%"}, {"smiles": "CCC1CCCCN1C(=O)CSc1nnc(-c2cccs2)o1", "note": "(stereo not given)", "Potency": "inconclusive [inhibitor, single point]"}, {"smiles": "CC(=O)NC1CC(=O)N(c2ccc3c(c2)OCCO3)C1", "note": "(stereo not given)", "activity change, negative = inhibition": "inactive: 5.68%"}, {"smiles": "Cc1cc(/C=N/NC(=O)c2ccc(O)cc2)c(C)n1C1CC1", "activity change, negative = inhibition": "inactive: -17.4%"}, {"smiles": "O=C(NCc1ccc(Cl)cc1)c1ccc(COCC(F)(F)F)o1", "Potency": "inconclusive [inhibitor, partial curve, poor fit]"}, {"smiles": "O=C(Nc1cccc(Cl)c1)c1ccc2nc(CCc3ccccc3)oc2c1", "Potency": "inconclusive [inhibitor, single point]"}, {"smiles": "CCOCC(=O)Nc1c(C(=O)Nc2ccc(OC)cc2OC)oc2ccccc12", "activity change, negative = inhibition": "inactive: 0%"}, {"smiles": "COc1cc(CNc2nc3c(C)cc(C)cc3s2)ccc1O", "Potency": "inconclusive [inhibitor, single point]"}, {"smiles": "CCC1Oc2ccc(C)cc2N(CC(=O)NCc2ccc(OC)cc2)C1=O", "note": "(stereo not given)", "activity change, negative = inhibition": "inactive: -7.07%"}, {"smiles": "COc1cc2c(cc1OC)CN(CCOc1ccc(Br)cc1)CC2", "Potency": "inconclusive [inhibitor, single point]"}, {"smiles": "C=C(C)C1CC=C(C)/C(=N/NC(=O)c2cccc([N+](=O)[O-])c2)C1", "note": "(stereo not given)", "Potency": "inconclusive [inhibitor, single point]"}, {"smiles": "CC(=O)Nc1ccc2ccccc2c1", "activity change, negative = inhibition": "inactive: 1.18%"}, {"smiles": "Cc1ccc(C(=O)CSc2nnc(COc3ccc(C#N)cc3)n2-c2ccccc2)cc1", "activity change, negative = inhibition": "inactive: -9.04%"}, {"smiles": "O=C(NC1C2CC3CC(C2)CC1C3)c1ccc(Br)o1", "note": "(stereo not given)", "Potency": "inconclusive [inhibitor, partial curve, poor fit]"}, {"smiles": "Cc1ccc(C2=Nc3ccccc3N(CC(=O)Nc3ccccc3F)C(=O)C2)cc1C", "Potency": "inconclusive [inhibitor, single point]"}, {"smiles": "O=C(O)Cn1nnnc1SCC(=O)Nc1ccccc1F", "activity change, negative = inhibition": "inactive: 11.4%"}, {"smiles": "CCCCCOC(=O)C1C(c2ccccc2)C(C(=O)O)C1c1ccccc1", "note": "(stereo not given)", "Potency": "inconclusive [inhibitor, single point]"}, {"smiles": "O=C(Cc1c(Cl)cccc1Cl)OCC(=O)c1ccc[nH]1", "Potency": "inconclusive [inhibitor, single point]"}, {"smiles": "CCCn1c(C)cc(C(=O)CN2C(=O)c3cccc(N)c3C2=O)c1C", "activity change, negative = inhibition": "inactive: 19.7%"}, {"smiles": "Cc1cccc(NC(=O)c2ccc(Cn3cc(C(F)(F)F)ccc3=O)cc2)c1", "Potency": "inconclusive [inhibitor, partial curve, poor fit]"}, {"smiles": "O=C(COc1ccc2ccc(=O)oc2c1)NC(Cc1ccc(Cl)cc1)C(=O)O", "note": "(stereo not given)", "Potency": "inconclusive [inhibitor, partial curve, poor fit]"}, {"smiles": "CCOC(=O)c1c(C)n(S(=O)(=O)c2ccc(C)cc2C)c2ccc(NS(=O)(=O)c3ccc(C)cc3C)cc12", "Potency": "inconclusive [inhibitor, partial curve, poor fit]"}]}]}
